Source: FireProtDB (doi:10.1016/j.jmb.2009.08.026)

Conditions: Homo sapiens; pH 6.6; Thermal; DSC; ADA (N-(2-acetamide)iminodiaceticacid); reversible: Yes (>80%)

## Fibroblast growth factor 1 wild type (sequence not shown)
  Tm: 39.8 °C
  unfolding enthalpy (calorimetric): 65.7 kcal/mol
